Biological target: T1, HCoV-OC43 nucleocapsid (N) protein, 2X-StrepTag tagged (HCoV-OC43, UniProt P33469 1-448)
T1 sequence: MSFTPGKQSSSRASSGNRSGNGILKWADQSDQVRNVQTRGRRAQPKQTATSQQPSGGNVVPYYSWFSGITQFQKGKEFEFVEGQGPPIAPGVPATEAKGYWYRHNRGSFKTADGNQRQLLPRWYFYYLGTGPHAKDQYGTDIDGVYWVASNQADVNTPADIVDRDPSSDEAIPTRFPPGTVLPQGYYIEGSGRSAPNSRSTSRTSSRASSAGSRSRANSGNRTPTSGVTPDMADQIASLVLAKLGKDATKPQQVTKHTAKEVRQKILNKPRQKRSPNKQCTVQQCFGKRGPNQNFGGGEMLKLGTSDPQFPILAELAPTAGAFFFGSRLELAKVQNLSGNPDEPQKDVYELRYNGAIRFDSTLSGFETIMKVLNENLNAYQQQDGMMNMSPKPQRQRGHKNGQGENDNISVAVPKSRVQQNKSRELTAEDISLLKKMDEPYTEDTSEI
Test: BLI

B1: CCL20 (ligand)
chain: not shown
  Kd: 1800 nM
  koff: 0.017 s⁻¹
  kon: 18000 M⁻¹ s⁻¹
